Hit rate of the full screen: of about 340,000 compounds, about 1,000 (0.29%) were called active. The shares of active, inactive and inconclusive entries below differ from those in the screen. Rule as the data show it: inconclusive = inhibition above about 29% without an active follow-up result; inactive = below that.
What follows are molecules tested against Genome polyprotein (Dengue virus type 2 (strain 16681-PDK53)) (UniProt P29991) (assay: Dengue-2 NS5 methyltransferase inhibitors, primary screen, biochemical, confirmation dose response (AID 588689)). Conditions: Dengue-2 NS5 methyltransferase capping enzyme assay, at 25 µM, hits give high values.

Row | SMILES | inhibition
1 | c1ccc(-c2nc3ccccc3c3nc4ccccc4n23)cc1 | inactive: 0.36%
2 | O=C(O)CCn1cc(C(=O)O)c(-c2ccccc2)n1 | inactive: -1.47%
3 | O=C(O)C1C2CCC(O2)C1C(=O)Nc1ccc(Br)cc1F (configuration not stated) | inactive: -6.36%
4 | O=C1Nc2ccccc2C12NCCc1c2[nH]c2ccccc12 (configuration not stated) | inactive: 6.48%
5 | Cc1ccc(CNC(=O)CCn2ccc3cc(S(=O)(=O)N4CCCC4)ccc32)cc1 | inactive: -4.92%
6 | COc1ccccc1/C=C/C=C1\Oc2c(ccc(O)c2CN2CCN(CCO)CC2)C1=O | inconclusive: 152%
7 | Cc1ccc2c(c1)CCCN2CC(=O)N(C)c1c(N)n(Cc2ccccc2)c(=O)[nH]c1=O | inconclusive: 61.2%
8 | CCCCC1=CC2=C(c3ccco3)C(=O)C(C)(OC(=O)c3ccc(OC)cc3)C(=O)C2=CN1CCc1ccccn1 (configuration not stated) | inconclusive: 30.9%
9 | CCOC(=O)C1CCN(C(=O)c2ccc3c(c2)NC(=O)/C(=C/c2ccccc2)S3)CC1 | inconclusive: 51%
10 | O=C(NCc1ccco1)c1cccc2c1C(=O)c1ccc(N3CCC(Cc4ccccc4)CC3)cc1S2(=O)=O | inconclusive: 63.5%
11 | N#CC1=C(N)SC(N)=C(C#N)C1c1cccc(Oc2ccccc2)c1 | inconclusive: 109%
12 | CCOc1ccc(N2C(=O)c3ccccc3C2=O)cc1 | inactive: 1.62%
13 | O=C(Nc1ccc(S(=O)(=O)Nc2nccs2)cc1)c1ccc(N2C(=O)c3ccccc3C2=O)cc1 | inconclusive: 81.7%
14 | COc1ccc(C2C(C(=O)c3ccccc3)N3c4ccccc4C=CC3C2[N+](=O)[O-])cc1 (configuration not stated) | inconclusive: 195%
15 | O=C1CSC(=S)N1/N=C/c1ccc(O)c(O)c1O | inconclusive: 71.5%
16 | O=c1oc2c(CN3CCCCC3)c(O)ccc2cc1-c1nc2ccccc2[nH]1 | inconclusive: 49.4%
17 | CC[C@H](C)/C=C/C1=CC2=C(Cl)C(=O)[C@@]3(C)OC(=O)C(C(=O)[C@H](C)[C@@H](C)O)=C3C2=CO1 | inconclusive: 36.2%
18 | Nc1ccc(C(=O)Nc2ccc3c(O)cc(S(=O)(=O)O)cc3c2)cc1 | inactive: 4.28%
19 | N#C/C(=C\c1ccccn1)c1nc2ccccc2s1 | inconclusive: 52.2%
20 | Cc1nc2ccccc2c(=O)n1NC(=O)c1ccc(C(C)(C)C)cc1 | inactive: -7.84%
21 | C=CCOc1ccc(C2OC34CCCCC3C(C#N)(C#N)C2(C#N)C(=N)O4)cc1 (configuration not stated) | inconclusive: 58.1%
22 | S=C(Nc1ccc2nc(-c3ccccn3)c(-c3ccccn3)nc2c1)N1CCOCC1 | inconclusive: 34.1%

Row | SMILES | inhibition
23 | CCOC(=O)C1=C(C)N=c2s/c(=C\c3cccn3C)c(=O)n2C1c1cccc(OC)c1OC (configuration not stated) | inconclusive: 38.3%
24 | Cc1ccc(S(=O)(=O)N(CC(=O)Nc2cccc(C(F)(F)F)c2)C(=O)N2CCN(C)CC2)cc1 | inactive: -4.32%
25 | Cc1ccsc1/C=C1\Oc2cc(O)ccc2C1=O | inconclusive: 72%
26 | Cc1nnc(-c2ccccc2)c(=O)n1/N=C/c1c(O)ccc2ccccc12 | inconclusive: 179%
27 | COc1ccccc1/C=c1\sc2nc(-c3ccco3)nn2c1=O | inactive: 20.1%
28 | N#C/C(=C/c1ccc(N2CCCCC2)o1)C(=O)NCCc1c[nH]c2ccccc12 | inconclusive: 152%
29 | CCN(CC)c1ccc2oc(=O)c(C)nc2c1 | inconclusive: 59.3%
30 | CCOC(=O)Cc1cc(=O)n(-c2nc3ccccc3s2)[nH]1 | inconclusive: 32%
31 | CCCCN1C(=O)/C(=C2/Sc3ccc(OC)cc3N2CC)SC1=S | inconclusive: 53.2%
32 | COc1cccc(N2CC(O)Cn3c2nc2c3c(=O)[nH]c(=O)n2C)c1 (configuration not stated) | inactive: -3.08%
33 | C=CCN(C(=O)Cc1cccs1)c1nc(-c2ccc(S(C)(=O)=O)cc2)cs1 | inactive: -10.3%
34 | O=C(Nc1ncccc1O)c1ccc2c(c1)OCO2 | inactive: 0.74%
35 | Fc1ccc(C2=CC(c3ccc(Br)o3)n3ncnc3N2)cc1 (configuration not stated) | inconclusive: 138%
36 | COc1ccc(S(=O)(=O)C(C#N)c2nc3ccccc3nc2N2CCCCC2)cc1 (configuration not stated) | inconclusive: 33.2%
37 | COc1ccc(CN(C)C(C)C(=O)Nc2ccc(S(=O)(=O)N3CCCCC3)cc2)cc1F (configuration not stated) | inactive: 0.37%
38 | Nc1ccc(-c2c3ccc(=O)cc-3oc3cc(O)ccc23)c(C(=O)O)c1 | inconclusive: 152%
39 | COc1ccc(/C=C2\C(=O)N(c3c(Cl)cc(Cl)cc3Cl)N=C2NC(=O)c2cccc([N+](=O)[O-])c2)cc1 | inconclusive: 90.4%
40 | CC(C)(C)NC(=O)CN(C(=O)C1CSC(=O)C1)c1ccccc1F (configuration not stated) | inactive: -7.12%
41 | O=c1cc2oc3cc(O)c(O)cc3c(-c3ccccc3O)c-2cc1O | inconclusive: 173%
42 | COc1ccc2c(c1)c1nc3ccccc3nc1n2CCn1c(=O)oc2ccccc21 | inconclusive: 137%
43 | CC(C)(C)c1ccc(S(=O)(=O)N2CCN(c3ncccn3)CC2)cc1 | inactive: -5.15%
44 | COc1ccc(NC(C)C(=O)N/N=C/c2ccc([N+](=O)[O-])s2)cc1 (configuration not stated) | inactive: -5.18%

Row | SMILES | inhibition
45 | COc1ccc(OC)c(S(=O)(=O)ON2C(=O)c3ccccc3C2=O)c1 | inactive: 12.6%
46 | Cc1ccc(CN2CCN(CC(=O)NC(C)CCc3ccccc3)C2=O)cc1 (configuration not stated) | inactive: -4.17%
47 | COc1cc(OC)cc(C(=O)NCc2ccc3c(c2)cc(C)n3C)c1 | inconclusive: 86.8%
48 | CN1CC=C2C(C#N)=C(N)C(C#N)(C#N)C(Cc3ccccc3)C2C1 (configuration not stated) | inconclusive: 49.9%
49 | COC(=O)C1=C(CSc2nc3c(cc2C#N)CN(C)CC3)OC(N)=C(C#N)C1c1ccccc1F (configuration not stated) | inconclusive: 46.7%
50 | CCN1CC=C2C(C#N)=C(N)C(C#N)(C#N)C(CCc3ccccc3)C2C1 (configuration not stated) | inconclusive: 51.5%
51 | COc1ccc(NC(=O)c2ccc(S(=O)(=O)N3CC(C)OC(C)C3)cc2)cc1 (configuration not stated) | inactive: 3.36%
52 | COc1ccc(-c2ccc(NS(=O)(=O)c3ccc([N+](=O)[O-])cc3)cc2)nn1 | inactive: 5.43%
53 | CC(C1=C(CCN(C)C)Cc2ccccc21)c1ccccn1 (configuration not stated) | inconclusive: 48.4%
54 | CC(C)(C)CNC(=O)c1cccc2c1C(=O)c1ccc(N3CCCC3)cc1S2(=O)=O | inconclusive: 59.5%
55 | O=C(NCc1cc(C(F)(F)F)ccc1Cl)c1cccc2c1C(=O)c1ccc(N3CCOCC3)cc1S2(=O)=O | inconclusive: 45.9%
56 | Fc1ccc(C2=CC(c3ccco3)n3ncnc3N2)cc1 (configuration not stated) | inconclusive: 83%
57 | Cc1cccn2c(=O)c3cc(C#N)c(=NC(=O)c4cccnc4)n(CC4CCCO4)c3nc12 (configuration not stated) | inconclusive: 71.5%
58 | CC1CCCN(c2nc3ccccc3nc2C(C#N)S(=O)(=O)c2cccs2)C1 (configuration not stated) | inconclusive: 105%
59 | Oc1ccc(Cl)cc1CNC1CCCCC1 | inactive: -11.2%
60 | NC(=S)Nc1cccc2cc3ccccc3cc12 | inconclusive: 77.6%
61 | O=C(CN1C(=O)NC2(CCCCC2)C1=O)Oc1ccc2c(C(F)(F)F)cc(=O)oc2c1 | inconclusive: 35.5%
62 | COc1cc(NC(=O)CSc2ccc(-c3ccccn3)nn2)cc(OC)c1 | inactive: 0%
63 | CCN1CCN(Cc2c(O)ccc3c2O/C(=C\c2ccc(C)cc2)C3=O)CC1 | inconclusive: 32.7%
64 | CC(C)Sc1nsc2nc(=O)c(/C=C3\C=Nc4ccccc43)c(N)n12 | inconclusive: 72.6%
65 | COc1cc(/C=C2/C(=O)NN(c3ccc(Cl)cc3)C2=O)ccc1OC(=O)c1ccco1 | inactive: 15.2%
66 | CC1C2(C)OC(=N)C(C#N)(C(C)O2)C1(C#N)C#N (configuration not stated) | inconclusive: 105%

Row | SMILES | inhibition
67 | O=c1ccc2cc3c4c(c2o1)CCCN4CCC3 | inconclusive: 116%
68 | O=C(CN1CCN(Cc2ccc(F)cc2)CC1)Nc1ccccc1F | inactive: 1.36%
69 | CCCCCC(=O)Nc1cc(S(=O)(=O)N2CCCCC2)ccc1N1CCCCC1 | inactive: -6.48%
70 | CC(=O)c1ccc2c(c1)c(C#N)c1ccccc1[n+]2[O-] | inconclusive: 67.6%
71 | CCOc1cc(C2C3=C(CCCC3=O)NC3=C2C(=O)CCC3)ccc1OCCO | inconclusive: 32.9%
72 | O=C(O)Cn1c(CC(=O)N2CCCC2)nc2ccccc21 | inactive: 2.7%
73 | O=c1oc2ccccc2c(O)c1C=Nc1cccnc1 | inactive: -5.19%
74 | Cc1nc2ccc(C(=O)O)cc2nc1C | inactive: -2.96%
75 | Cc1cc(C)cc(N=Cc2ccc([N+](=O)[O-])s2)c1 | inactive: 4.37%
76 | O=c1c2c(nc3cc(-c4cccc(Cl)c4)[nH]n13)CCCC2 | inactive: 1.45%
77 | CCCCNC(=O)c1onc(CSc2ccccc2CC)c1C(=O)O | inactive: 6.29%
78 | OCC(CO)(CO)n1cnnn1 | inactive: -8.59%
79 | COc1cccc(N=C2SC(CC(=O)Nc3ccccc3)C(=O)N2Cc2ccccn2)c1 (configuration not stated) | inactive: -4.38%
80 | CCNC(=O)C1CCCN(c2nc(C)cc(C)n2)C1 (configuration not stated) | inactive: 3.17%
81 | CCC(C)/C=C/C1=CC2=C(Cl)C(=O)C3(C)OC(=O)C(C(=O)C(C)C(C)O)C3C2=CO1 (configuration not stated) | inactive: 4.35%
82 | Cc1cn2c(N)c(C=C3C=C(Cl)C(=O)C(Cl)=C3)c(=O)nc2s1 | inconclusive: 52.8%
83 | CCCCn1c(O)c(/C=C2\C=Nc3ccccc32)c(=O)[nH]c1=O | inconclusive: 74.6%
84 | O=C1/C(=C\c2cccc([N+](=O)[O-])c2O)SC(=S)N1Cc1ccccc1 | inactive: 32.5%
85 | CC1=C/C(=C(\c2ccc(O)c(C)c2)c2ccccc2S(=O)(=O)O)C=CC1=O | inactive: 0.65%
86 | CC(Nc1cccc2ccccc12)C(=O)N/N=C/c1ccccn1 (configuration not stated) | inconclusive: 44%
87 | COC(=O)[C@@H]1C[C@@]2(O)[C@H](O)[C@H](O)[C@H](O)C[C@H]2N1Cc1cccc2ccccc12 | inactive: -3.14%

Reference: PubChem BioAssay AID588689 (Southern Research Specialized Biocontainment Screening …, 2011)
